Test results published in PubChem BioAssay AID1508642 (National Center for Advancing Translational Sciences (NCATS), 2021).
Hit rate of the full screen: of about 43,000 compounds, about 200 (0.47%) were called active. Roughly 12% stayed inconclusive and do not appear here. Calls follow the shape of the dose curve; as a rule, active = well fitted cell-killing curve with a large enough effect; inconclusive = small, poorly fitted or top-dose-only effect, or effect the other way; inactive = flat fitted curve, though single readings scatter. The list shows a part of the results.

Assay: Cell viability qHTS assay in S16 Pmp22-F2sN cells; also: nearly all actives have a fitted effect of over 65% in size
Conditions: S16 Pmp22-F2sN Schwann cells viability, CellTiter-Glo, 24 h; series mostly up to 57.5 µM; activity change, negative = cytotoxicity: at the top concentration
Outline: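 S16 Pmp22-F2sN Schwann cells (500-1,000/well) in phenol-red-free DMEM with 10% FBS received 23 nL compound by pin tool for 24 h at 37 °C. Viability was then read as CellTiter-Glo luminescence after 15 min at room temperature.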
% is scaled to controls: 0 for no effect and ±100 for the full control effect; potency is read from the fitted curve at half-maximal effect.

Compound	activity change, negative = cytotoxicity	Potency
Cc1cc(C)cc(NC(=O)Cc2c(C(=O)O)c(C)cn2C)c1	inactive: 3.42%	–
O=C(Cn1cc(SCc2ccccc2F)c2ccccc21)N1CCCCC1	inactive: 14.5%	–
O=C(NCc1ccco1)c1ccc2c(c1)N(Cc1c(F)cccc1Cl)C(=O)c1ccccc1S2	inactive: -4.22%	–
CCc1cc2c(cc(C(=O)OC)n2Cc2nc(-c3ccc(C)cc3)oc2C)s1	inactive: -13.7%	–
O=C(CSc1nc2c([nH]c3ccccc32)c(=O)n1-c1cccc(C(F)(F)F)c1)N1CCc2ccccc21	inactive: 15.8%	–
CC(=O)c1cccc(NC(=O)C2CCN(S(=O)(=O)c3ccc4[nH]c(=O)ccc4c3)CC2)c1	inactive: 12.2%	–
Cc1ccc(CNC(=O)C2CCN(Cc3nc(-c4cccc(Br)c4)oc3C)CC2)cc1	inactive: 0.687%	–
CCOc1ccc(-n2c(=O)c3c4c(sc3n(CC(=O)NC(C)CC)c2=O)CCCC4)cc1 (centres undefined)	inactive: 7.81%	–
Cc1cccc(-n2c(=O)c3ccccc3n(Cc3ccccc3)c2=O)c1	inactive: 22.1%	–
Cc1ccc(-n2nc3ccc(NC(=O)COc4ccccc4)cc3n2)cc1Cl	inactive: -1.18%	–
CCC(C(=O)NC1CCC(C)CC1)n1nc(C)c2sc3ccccc3c2c1=O (centres undefined)	inactive: 5.46%	–
COc1ccccc1CNC(=O)C1CCN(S(=O)(=O)c2ccc3c(c2)CCCN3C(C)=O)CC1	inactive: 2.46%	–
CC(C)c1ccc(NC(=O)CSc2nc3ccccc3nc2Cc2ccccc2)cc1	inactive: 2%	–
CC1CCn2c(nc3cc(C(=O)NCc4ccc(OC(C)C)cc4)ccc32)C1 (centres undefined)	inactive: 0.734%	–
COc1cccc(N2CCN(C(=O)CCCCCn3c(=O)[nH]c4ccccc4c3=O)CC2)c1	inactive: 6.93%	–
CCOc1ccccc1NC(=O)Cn1nnc(C(=O)NCc2ccc(F)cc2)c1N	inactive: -0.126%	–
CN(C)CCNC(=O)C(=O)NCC(c1cccnc1)N1CCN(c2ccc(F)cc2)CC1 (centres undefined)	inactive: 2.87%	–
COc1ccc(Cn2ccc3nc(C)c(C(=O)N4CCN(c5ccc(OC)cc5)CC4)cc3c2=O)cc1	inactive: 0.353%	–
Cc1ccc(S(=O)(=O)N(C)Cc2nc(-c3ccccc3)oc2C)cc1	inactive: -9.52%	–
CCc1nc2nc(C)c(NS(=O)(=O)c3ccc(C)cc3)c(=O)n2[nH]1	inactive: 0.672%	–
Cc1ccc(S(=O)(=O)NCc2nc3cccnc3n2Cc2ccccc2Cl)c(C)c1	inactive: -15.4%	–
CCc1nnc2c(Nc3ccc(N(CC)CC)cc3C)nc3ccccc3n12	inactive: -10.1%	–
Cc1cc(S(=O)(=O)Nc2ccc(C(=O)O)cc2)c(C)c(S(=O)(=O)c2ccc(Cl)cc2)c1	inactive: 12.3%	–
COc1cccc(NS(=O)(=O)c2ccc3c(c2)N(C)C(=O)CC(=O)N3C)c1	inactive: 4.51%	–

Compound	activity change, negative = cytotoxicity	Potency
COc1ccc(C)cc1NC(=O)c1cn(C)c(=O)c2cc(OC)c(OC)cc12	inactive: -1.21%	–
CCCc1nn2c(=O)cc(COC(=O)c3ccc(NC(=O)C4CCCCC4)cc3)nc2s1	inactive: 17.3%	–
CC(C)Cc1nn2c(=O)cc(COC(=O)c3ccccc3NC(=O)C3CCCCC3)nc2s1	inactive: 0.536%	–
CC(=O)c1ccccc1OCC(O)Cn1c(CO)nc2ccccc21 (centres undefined)	inactive: -0.232%	–
O=C(Nc1ccc(Br)cc1F)N1CC=C(c2c[nH]c3ccccc23)CC1	inactive: -10.1%	–
COc1ccccc1NC(=O)CN1C(=O)c2ccccc2Sc2ccc(C(=O)N3CCCC3)cc21	inactive: 1.51%	–
CCc1ccccc1NC(=O)N1CC(C)Sc2ccccc21 (centres undefined)	inactive: -17%	–
Cc1cccc(Cn2cc(C(=O)Nc3cc(F)ccc3F)ccc2=O)c1	inactive: 2.31%	–
COc1ccc(CNC(=O)CN2C(=O)CCn3nc(-c4ccccc4)cc32)c(OC)c1	inactive: 10.1%	–
COc1ccc(S(=O)(=O)Nc2cc3c(C(=O)OC(C)C)c(C)oc3c3ccccc23)cc1	inactive: -20.8%	–
Cc1cc(OCC(O)CN2CCN(c3cccc(Cl)c3)CC2)ccc1Cl (centres undefined)	inactive: 8.67%	–
COc1ccc(C(=O)c2sc3nc(-c4ccc(F)cc4)ccc3c2N)cc1	inactive: -7.5%	–
COc1ccc(-c2nc(Cn3c(SCc4cccc(C(F)(F)F)c4)nc4cccnc43)c(C)o2)cc1OC	inactive: 1.46%	–
Cc1oc2ncn(C)c(=O)c2c1C(=O)NCc1ccc(Cl)cc1	inactive: -21.6%	–
Cn1c(Nc2ccc(Cl)cc2)cc(=O)n(C)c1=O	inactive: 14.2%	–
CC1=C(C(=O)Nc2ccc(C)cc2C)C(c2ccc(O)cc2)n2nc(SCC(=O)c3ccc(C)cc3)nc2N1 (centres undefined)	inactive: -8.15%	–
COc1ccc(C(C)=O)cc1CSc1nc(NCCc2ccccc2)c2ccccc2n1	inactive: -11.3%	–
CCN(CC)CCCNC(=O)c1nn(C)c2c1CSc1ccccc1-2	inactive: 2.76%	–
Cc1ccc(-n2nc(C)c3c(C(=O)NCCc4ccccc4)cc(C)nc32)cc1	inactive: 19.1%	–
Cc1ccc(CNC(=O)c2ccc3c(c2)nc2n3CCOC2)cc1	inactive: 0.404%	–
COc1ccc(Cl)cc1CNCCSc1nnnn1-c1ccccc1	inactive: 1.68%	–
COc1ccc(C2NC(=O)N(C)C3=C2C(=O)N(c2cccc(C(=O)O)c2)C3)cc1 (centres undefined)	inactive: -0.905%	–
COc1ccc(NC(=O)CCc2nc3c(C)nn(-c4ccc(C)cc4)c3n(C)c2=O)cc1	inactive: -4.01%	–
CCCS(=O)(=O)c1c(S(=O)(=O)CCC)c2cc(CC)ccn2c1C(=O)c1ccc(Cl)cc1	inactive: -0.851%	–

Compound	activity change, negative = cytotoxicity	Potency
Cc1cccc(N(CC(=O)NCCSCc2cccc(Cl)c2)S(=O)(=O)c2ccccc2)c1C	inactive: -2.25%	–
Cc1cc(NC(=O)c2ccc3c(c2)OCCO3)cc(-c2nc3ccccc3o2)c1O	inactive: -7.64%	–
Cc1ccc(NS(=O)(=O)c2cc(-c3cnc(C4CC4)o3)ccc2C)cc1Cl	–	active: 14.1 µM
COc1ccc(NC(=O)N2CCOc3ccc(Cl)cc32)cc1	inactive: -7.32%	–
Cc1ccc(C(=O)COC(=O)c2cccc(NC(=O)c3ccc(Cl)cc3Cl)c2)cc1	inactive: 5.44%	–
CCC(C(=O)NCc1ccc(OC)c(OC)c1)n1nc(C)c2c(C)n(-c3ccc(C)cc3)nc2c1=O (centres undefined)	inactive: -14%	–
CCOC(=O)c1c(NC(=O)c2cc3nc(-c4ccc(Br)cc4)cc(C(F)(F)F)n3n2)sc(C(C)=O)c1C	inactive: 2.53%	–
CC(C)Oc1ccc(C(=O)NCC(c2ccc(N(C)C)cc2)N2CCCC2)cc1 (centres undefined)	inactive: 2.09%	–
CCOc1ccccc1NC(=O)CCNS(=O)(=O)c1cccc2nonc12	inactive: 4.56%	–
Cc1ccc(C)c(NC(=O)Cn2cc(C(=O)c3cccs3)c3ccccc32)c1	inactive: -14.9%	–
COc1cc(C(=O)Nc2ccc3c(c2)N(C2CCCC2)C(=O)c2ccccc2S3)cc(OC)c1OC	inactive: -29.6%	–
CCOc1ccccc1NC(=O)C1CCCN1S(=O)(=O)c1ccc2c(c1)C(C)(C)C(=O)N2C (centres undefined)	inactive: -7.3%	–
CCCCNC(=O)c1cc(-c2ccc(OC)cc2)nc2n[nH]c(-c3cccc([N+](=O)[O-])c3)c12	–	active: 15.8 µM
CCc1ccc(NC(=O)CCNS(=O)(=O)c2ccc3c(c2)oc(=O)n3C)cc1	inactive: -3.5%	–
CCOC(=O)c1ccccc1NC(=O)CN1CCCN(Cc2cccc(Cl)c2)S1(=O)=O	inactive: -19.1%	–
COc1ccc(Cc2nc3c4cnn(-c5ccccc5F)c4ncn3n2)cc1	inactive: 2.11%	–
COc1ccc(Cl)cc1N(C)C(=O)c1cc2c(=O)oc3ccc(C)cc3c2s1	inactive: -0.381%	–
CCc1nn(CC(=O)N(C)Cc2ccccc2)c(=O)c2cc3sccc3n12	inactive: -5.82%	–
Cc1ccc(CSCCC(=O)NCc2ccc(F)cc2Cl)cc1	inactive: 15.1%	–
COc1ccc(-c2nnc(SCC(=O)N(C)C3CCCCC3)o2)cc1OC	inactive: 27.2%	–
CCOc1ccc(C(=O)c2oc3ccccc3c2NC(=O)c2cc(-c3ccc(Cl)cc3)on2)cc1	inactive: -2.32%	–
O=S(=O)(NCC(c1ccco1)S(=O)(=O)c1cccs1)c1ccc(Cl)cc1 (centres undefined)	inactive: -13.8%	–
CN(Cc1ccccc1)c1ncnc2c1nnn2C	inactive: -17.8%	–
O=c1oc2c3c(ccc2c2ccccc12)OCN(Cc1ccccc1Cl)C3	inactive: -2.84%	–

Compound	activity change, negative = cytotoxicity	Potency
COC(=O)c1sccc1S(=O)(=O)N(CC(=O)Nc1ccccc1F)c1ccccc1	inactive: -3.27%	–
Cc1ccc(NC(=O)Nc2ccccc2OCc2cc(=O)n3ccccc3n2)c(Cl)c1	inactive: -1.15%	–
O=C(CCCCn1c(=O)c2ccccc2n(CC(=O)Nc2ccc(F)cc2F)c1=O)NCCc1ccccc1	inactive: 10.9%	–
COC(=O)c1c(NC(=O)Cc2coc3ccc(C(C)C)cc23)sc2c1CCC2	inactive: -19.1%	–
CCn1cc(C(=O)NCCCOC)c(=O)c2cc(S(=O)(=O)N3CCCC3)ccc21	inactive: -14.1%	–
Cc1cccc(C(=O)n2nc(-c3cccnc3)nc2NCc2ccccc2)c1	inactive: 0.092%	–
Cc1ccc(C(=O)NCCc2ccc(S(N)(=O)=O)cc2)cc1-n1cnc2cccnc21	inactive: 2.86%	–
Cc1ccc(N=C2NC(=O)CC(C(=O)Nc3cc(C(F)(F)F)ccc3Cl)S2)cc1 (centres undefined)	inactive: -13.6%	–
O=S(=O)(c1ccc(Cl)cc1)c1nnn2c1nc(NCc1ccc3c(c1)OCO3)c1sccc12	inactive: 4.33%	–
Cc1ccc(N(CC(=O)Nc2cc(C)ccc2C)S(=O)(=O)c2c(C)noc2C)cc1	inactive: -1.73%	–
Cc1ccc(COC(=O)c2[nH]c3c(c2C)C(=O)CC(c2ccc(N(C)C)cc2)C3)cc1 (centres undefined)	inactive: -4.75%	–
CCC(=O)N1c2ccccc2CC1C(=O)NCc1ccc(N(C)C)cc1 (centres undefined)	inactive: 3.37%	–
CC(=O)c1ccc(NC(=O)c2ccc(-n3cnnc3)cc2)cc1	inactive: -2.76%	–
CCCCN(CC)CCNC(=O)C1CCCN(c2ncnc3onc(C)c23)C1 (centres undefined)	inactive: -3.26%	–
COc1ccc(-n2c(SCC(=O)c3ccccc3)nc3c([nH]c4ccccc43)c2=O)cc1	inactive: 13.6%	–
CCOc1ccccc1NC(=O)C1CCN(S(=O)(=O)c2ccc3c(c2)CCCN3C(C)=O)CC1	inactive: -0.724%	–
CC(C)c1ccc(NS(=O)(=O)c2ccc3[nH]cc(C(=O)NCCc4ccccc4)c(=O)c3c2)cc1	inactive: -4.81%	–
CCOC(=O)c1cc(-c2ccc(F)cc2)n(CCC(=O)Nc2nc3ccc(OC)cc3s2)c1C	inactive: -17.3%	–
CCOC(=O)CC(NC(=O)CCc1c(C)nc2c(c1C)c(=O)n(C)c(=O)n2C)c1ccc(OCC)c(OC)c1 (centres undefined)	inactive: -17%	–
CC(=O)Nc1ccc(NC(=O)C(Cc2ccccc2)NS(=O)(=O)c2ccc3c(c2)oc(=O)n3C)cc1 (centres undefined)	inactive: -9.78%	–
CCOc1cc(-c2ccc(OC(=O)c3ccc(OC)cc3)c(OC)c2)cc(=O)c2c(C)oc(C)c12	inactive: -14.9%	–
CCn1nc(C)c2c(-c3ccccc3)cc(=O)n(C(C)C(=O)NCCc3ccc(OC)c(OC)c3)c21 (centres undefined)	inactive: -8.92%	–
